Results from the supplement of paper PMC10126150.
Sequences with one replicate were seen in a single cluster, so their values are uncertain.

System: ATP
Test: switch fluorescence ratio, 500 uM ATP over buffer (Cy3 cluster intensity, sum of 5 cycles each) (fold (ratio)); higher = stronger signal-on switching upon ATP binding; sequences stand for … in TCGTCGGCAGCGTCAGATGTGTATAAGAGACAGTTTTTTTTTTTTTTTTTTTTTTTTT…TC
Conditions: aptamer strand: ATP DNA aptamer (quencher-CACCTGGGGGAGTATTGCGGAGGAAGG + anchor), 100 nM annealed; ATP concentration: 500 uM; one replicate
Summary of the method: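 After annealing to 100 nM quencher-labelled ATP aptamer, Cy3-labelled switching-strand clusters on a modified Illumina MiSeq flow-cell were imaged in selection buffer. A second image followed after 15 min with 500 uM ATP at 22 °C, and five such buffer/ATP cycles were done, each separated by NaOH stripping and re-annealing. The fluorescence ratio, averaged per switch-domain sequence, is summed target-cycle over summed buffer-cycle Cy3 intensity per cluster, with clusters outside 100-1000 RFU excluded.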
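Also: ATP exposure 15 min at 22 °C before imaging.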

## AGCACTACCG
  switch fluorescence ratio: 1.14

## ACAAATTGAC
  switch fluorescence ratio: 1.05

## GTTGGCCAAA
  switch fluorescence ratio: 0.998

## GTGGGATT
  switch fluorescence ratio: 0.979

## TACAAATACG
  switch fluorescence ratio: 1.58

## GAATCGGTTT
  switch fluorescence ratio: 1

## ACTTATTCTC
  switch fluorescence ratio: 1.01

## CCTCAAATCT
  switch fluorescence ratio: 1.45

## GGACATTTCC
  switch fluorescence ratio: 1.12

## ATCGAGGGGC
  switch fluorescence ratio: 0.948

## TTCCGCGGTG
  switch fluorescence ratio: 1.04

## TGCTAGTAA
  switch fluorescence ratio: 1.01

## TGGATGAGTT
  switch fluorescence ratio: 0.998

## CACTTCTAAC
  switch fluorescence ratio: 1.09

## CGTCAATCGG
  switch fluorescence ratio: 1.13

## TGCATTCGCG
  switch fluorescence ratio: 1.03

## CCACCCTGGT
  switch fluorescence ratio: 1.15

## TTTTAGTGAG
  switch fluorescence ratio: 1.03

## TTTTCGTCTA
  switch fluorescence ratio: 0.955

## ACGTCACGCC
  switch fluorescence ratio: 1.59

## ATTCGTGGTG
  switch fluorescence ratio: 1.02

## GCGGGACGCG
  switch fluorescence ratio: 1.04

## TCCGCACAGT
  switch fluorescence ratio: 2.23

## CGGAAGGG
  switch fluorescence ratio: 1

## ATAGATATTG
  switch fluorescence ratio: 1.01

## CCACTGAATA
  switch fluorescence ratio: 1.11

## CCTTGGTTCG
  switch fluorescence ratio: 1.04

## CAGTACATGA
  switch fluorescence ratio: 1.02

## GTCAGGAGCC
  switch fluorescence ratio: 1.02

## TCTAGGTCGA
  switch fluorescence ratio: 0.993

## TGGCACGTAA
  switch fluorescence ratio: 1.24

## GGGAAGCGGA
  switch fluorescence ratio: 1.08

## ACGACTATA
  switch fluorescence ratio: 1.17

## GCGATAAGTA
  switch fluorescence ratio: 0.985

## CGATACAGGA
  switch fluorescence ratio: 1.05

## CTTCGACGGC
  switch fluorescence ratio: 1.41

## CCTGGGGTGC
  switch fluorescence ratio: 1.66

## ATAGGGCTGA
  switch fluorescence ratio: 0.985

## ACTATGATCT
  switch fluorescence ratio: 0.987

## CTCTAGACTT
  switch fluorescence ratio: 1.01

## TATTCTTGGC
  switch fluorescence ratio: 1.03

## CATAAAGTCC
  switch fluorescence ratio: 1.01

## TCGGATCCTT
  switch fluorescence ratio: 1.01

## TCGCAAATGA
  switch fluorescence ratio: 2.31

## CCTAGTGAGC
  switch fluorescence ratio: 1.05

## ACTTCTCGTC
  switch fluorescence ratio: 1.03

## CATTCTATAT
  switch fluorescence ratio: 0.95

## GGTAGGGCCA
  switch fluorescence ratio: 1.03

## CGGAGTCCTG
  switch fluorescence ratio: 0.974

## CCTAAGCGAT
  switch fluorescence ratio: 3.53

## AATTGTCGCA
  switch fluorescence ratio: 0.995

## TACACTTAAT
  switch fluorescence ratio: 1.03

## GTGCCACGTA
  switch fluorescence ratio: 1.01

## TGTAATATAT
  switch fluorescence ratio: 1.11

## ACACATGGGC
  switch fluorescence ratio: 1.02

## AATAAACCTC
  switch fluorescence ratio: 1.05

## CGATGGGT
  switch fluorescence ratio: 0.992

## AGTGTTGCGC
  switch fluorescence ratio: 0.946

## AAGCAGCAGG
  switch fluorescence ratio: 1.01

## GTATTTAGGC
  switch fluorescence ratio: 1.01

## GCTAGGGACG
  switch fluorescence ratio: 1.05

## CGGTTCCGCC
  switch fluorescence ratio: 0.979

## ATCGTGGTCG
  switch fluorescence ratio: 1.01

## CAGTCTCACA
  switch fluorescence ratio: 1.04

## ACTGAATTTC
  switch fluorescence ratio: 0.984

## CGCACATCGC
  switch fluorescence ratio: 2.2

## GTTATTGTAA
  switch fluorescence ratio: 0.966

## TCCTAGTGCT
  switch fluorescence ratio: 1.01

## TAACTACCG
  switch fluorescence ratio: 1.05

## CCAAATTTAT
  switch fluorescence ratio: 0.983

## TACAAAGCCT
  switch fluorescence ratio: 1.14

## GTAGTGAATA
  switch fluorescence ratio: 1.1

## ATCCTCTGTT
  switch fluorescence ratio: 1.04

## ATAATGCCGG
  switch fluorescence ratio: 0.998

## ACATTGGCAT
  switch fluorescence ratio: 0.967

## AGATAGTAAA
  switch fluorescence ratio: 0.991

## ACAGATGCTG
  switch fluorescence ratio: 1.03

## AACTGAAGTT
  switch fluorescence ratio: 0.985

## CGTAAAGACT
  switch fluorescence ratio: 0.982

## TGACCAATAA
  switch fluorescence ratio: 0.983

## GAGTCTACGG
  switch fluorescence ratio: 0.988

## TGACGGGTCT
  switch fluorescence ratio: 0.988

## TGGCGAGTTG
  switch fluorescence ratio: 0.98

## CGTATAGGCT
  switch fluorescence ratio: 1.01

## GAGAGTCGGT
  switch fluorescence ratio: 1.01
